Laboratory results reported in the supplement of paper PMC4967469.
IC50 is the fitted dose that halves viability relative to control wells, and lower means more sensitive; a limit (>, <) means that the fit lies beyond the doses tested. The AUC spans the tested range (256-fold, ending at the top dose) of the same fit: 1 means no effect, lower means more sensitive. For part of these data: The top dose, if marked as inferred, is not printed in the source and was worked back from the curve model.

Assays:
Test in all cases: Viability of human cancer cell lines after 72 h of drug (GDSC screen)
[1] = compound: O=C(O)CNC(=O)c1c(O)c2ccccc2n(Cc2ccccc2)c1=O [IOX2]; conditions: top dose 0.1 µM; top dose inferred
Experimental: (§1)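 Human cancer cell lines in 384-well plates, medium with 10% serum, drug for 72 h over a 256-fold dose range (nine 2-fold or five 4-fold steps up to the top dose). Adherent lines were fixed and stained with the nucleic acid dye Syto60, suspension lines read with resazurin; signal relative to control wells, capped at 0 and 100%. One two-parameter sigmoid per drug and line, fitted in a mixed model over all curves with the slope shared within a line.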

[2] = compound: COc1cc(Nc2c(C#N)cnc3cc(OCCCN4CCN(C)CC4)c(OC)cc23)c(Cl)cc1Cl [Bosutinib]; conditions: top dose 2 µM
Experimental: as §1

[3] = compound: Cc1ccc(C(=O)Nc2cccc(C(F)(F)F)c2)cc1Nc1nc(-c2cccnc2)nc2c1cnn2C [NVP-BHG712]; conditions: top dose 10.24 µM; top dose inferred
Experimental: as §1

[4] = compound: CO[C@@H]1[C@H](N(C)C(=O)c2ccccc2)C[C@H]2O[C@]1(C)n1c3ccccc3c3c4c(c5c6ccccc6n2c5c31)C(=O)NC4 [Midostaurin]; conditions: top dose 0.512 µM; top dose inferred
Experimental: as §1

Row | Cell Line | AUC [1] | IC50 [1] [nM] | AUC [2] | IC50 [2] [nM] | AUC [3] | IC50 [3] [nM] | AUC [4] | IC50 [4] [nM]
1 | UWB1.289 (ovary, adherent) | 0.951 | > 100 | 0.916 | > 2000 | 0.887 | > 10200 |  | 
2 | A498 (kidney, adherent) | 0.976 | > 100 | 0.814 | 1870 | 0.978 | > 10200 |  | 
3 | DOV13 (ovary, adherent) | 0.946 | > 100 | 0.774 | 912 | 0.979 | > 10200 |  | 
4 | NCI-H23 (lung adenocarcinoma, adherent) | 0.981 | > 100 | 0.893 | > 2000 | 0.919 | > 10200 |  | 
5 | OVK-18 (ovary, adherent) | 0.981 | > 100 | 0.954 | > 2000 | 0.983 | > 10200 |  | 
6 | EMC-BAC-2 (lung adenocarcinoma, adherent) | 0.974 | > 100 | 0.874 | > 2000 | 0.978 | > 10200 |  | 
7 | TE-4 (oesophagus, adherent) | 0.892 | > 100 | 0.839 | 1360 | 0.987 | > 10200 |  | 
8 | T-24 (bladder, adherent) | 0.983 | > 100 |  |  | 0.966 | > 10200 | 0.914 | > 512
9 | TK10 (kidney, adherent) | 0.971 | > 100 | 0.872 | > 2000 | 0.864 | > 10200 |  | 
10 | SNB75 (glioma, adherent) | 0.959 | > 100 | 0.979 | > 2000 | 0.978 | > 10200 |  | 
11 | KYAE-1 (oesophagus, suspension) | 0.98 | > 100 | 0.786 | 961 | 0.851 | 9160 |  | 
12 | SK-OV-3 (ovary, adherent) | 0.979 | > 100 | 0.793 | 1190 | 0.948 | > 10200 |  | 
13 | OACp4C (oesophagus, adherent) | 0.973 | > 100 | 0.823 | 1510 | 0.684 | 2340 |  | 
14 | DU-145 (prostate, adherent) | 0.973 | > 100 | 0.971 | > 2000 | 0.962 | > 10200 |  | 
15 | Hey (ovary, adherent) | 0.913 | > 100 | 0.627 | 274 | 0.734 | 2830 |  | 
16 | OVCA433 (ovary, adherent) | 0.968 | > 100 | 0.909 | > 2000 | 0.957 | > 10200 |  | 
17 | OVCAR-8 (ovary, adherent) | 0.98 | > 100 | 0.972 | > 2000 | 0.902 | > 10200 |  | 
18 | YH-13 (glioma, adherent) | 0.984 | > 100 | 0.972 | > 2000 | 0.94 | > 10200 |  | 
19 | HT-1080 (fibrosarcoma, adherent) | 0.988 | > 100 | 0.736 | 541 | 0.96 | > 10200 |  | 
20 | JHOS-3 (ovary, adherent) | 0.975 | > 100 | 0.983 | > 2000 | 0.937 | > 10200 |  | 
